Read-outs that look alike come from different tables or passages of the source.
Columns and labels:
[1] = system: HIV-1 pseudovirus expressing Env proteins from the Z1800 M transmitted/founder clone E4.02; experiment: HIV-1 pseudovirus infectivity (luciferase) assay in TZM-bl cells; settings: for Fold Change (IC50 relative to TXL): compound IC50 / TXL IC50 of the corresponding experiment
[2] = system: HIV-1 pseudovirus expressing Env proteins from the Z1800 M transmitted/founder clone E4.02
[3] = TZM-bl, read-out: Antiviral Activity IC50, TZM-bl cells, experiment of 8a–d with TXL (reference TXL 0.001 μM)
[4] = TZM-bl, read-out: Antiviral Activity IC50, TZM-bl cells, experiment of 15a–b and 21a–b with TXL (reference TXL 0.20 μM)

SMILES	IC50 [1, 3] [nM]	Fold Change (IC50 relative to TXL) [1]	IC50 [1, 4] [nM]	IC50 ([1]; read-out: Antiviral Activity IC50, TZM-bl cells, experiment of 15a–b and 21a–b with TXL (reference TXL 0.20 μM)) [nM]	fold more potent than TXL [2] [fold]
CCCCCCCCCCCCCCCCOC[C@@H](COP(=O)(O)CO[C@H](C)Cn1cnc2c(N)ncnc21)OCc1ccccc1 [8a, Ammonium[(1R)-2-(6-aminopurin-9-yl)-1-methyl-ethoxy]methyl-[(2S)-2-benzyloxy-3-hexadecoxy-propoxy]phosphinate]	1	1	–	–	–
CCCCCCCCCCCCCCCCCCOC[C@@H](COP(=O)(O)CO[C@H](C)Cn1cnc2c(N)ncnc21)OCc1ccccc1 [8b, Ammonium[(1R)-2-(6-aminopurin-9-yl)-1-methyl-ethoxy]methyl-[(2S)-2-benzyloxy-3-octadecoxy-propoxy]phosphinate]	1	1	–	–	–
CCCCCCCCCCCCCCCCOC[C@H](COP(=O)(O)CO[C@H](C)Cn1cnc2c(N)ncnc21)OCc1ccccc1 [8c, Ammonium[(1R)-2-(6-aminopurin-9-yl)-1-methyl-ethoxy]methyl-[(2R)-2-benzyloxy-3-hexadecoxy-propoxy]phosphinate]	2	2	–	–	–
CCCCCCCCCCCCCCCCCCOC[C@H](COP(=O)(O)CO[C@H](C)Cn1cnc2c(N)ncnc21)OCc1ccccc1 [8d, Ammonium[(1R)-2-(6-aminopurin-9-yl)-1-methyl-ethoxy]methyl-[(2R)-2-benzyloxy-3-octadecoxy-propoxy]phosphinate]	2	2	–	–	–
C[C@H](Cn1cnc2c(N)ncnc21)OCP(=O)(O)OCCCOCCCCCCCCCCCCCCCC(F)(F)F [15a, Ammonium[(1R)-2-(6-aminopurin-9-yl)-1-methyl-ethoxy]methyl-[3-(16,16,16-trifluorohexadecoxy)propoxy]phosphinate]	–	–	1600	–	–
C[C@H](Cn1cnc2c(N)ncnc21)OCP(=O)(O)OCCCOCCCCCCCCCCCCCCCCCC(F)(F)F [15b, Ammonium[(1R)-2-(6-aminopurin-9-yl)-1-methyl-ethoxy]methyl-[3-(18,18,18-trifluorooctadecoxy)propoxy]phosphinate]	–	3	600	610	–
C[C@H](Cn1cnc2c(N)ncnc21)OCP(=O)(O)OC[C@H](COCCCCCCCCCCCCCCCC(F)(F)F)OCc1ccccc1 [21a, Ammonium[(1R)-2-(6-Aminopurin-9-yl)-1-methyl-ethoxy]methyl-[(2S)-2-benzyloxy-3-(16,16,16-trifluorohexadecoxy)propoxy]phosphinate]	–	0.2	40	–	5
C[C@H](Cn1cnc2c(N)ncnc21)OCP(=O)(O)OC[C@H](COCCCCCCCCCCCCCCCCCC(F)(F)F)OCc1ccccc1 [21b, Ammonium[(1R)-2-(6-aminopurin-9-yl)-1-methyl-ethoxy]methyl-[(2S)-2-benzyloxy-3-(18,18,18-trifluorooctadecoxy)propoxy]phosphinate]	–	0.4	70	–	3
CCCCCCCCCCCCCCCCOCCCOP(=O)(O)CO[C@H](C)Cn1cnc2c(N)ncnc21 [TXL, hexadecyloxypropyl (HDP)-TFV, reference compound]	1	1	200	–	–
